Reference: paper PMC4336329 (PLoS ONE, 2015)
The campaign covered roughly 310,000 compounds. About 14,000 (4.5%) showed an effect of 50% or more. The effect is printed as a negative number. The list shows a part of the results.

target: human ether-à-go-go-related gene (hERG) potassium channel (human, UniProt Q12809); experiment: primary screen, population patch clamp on CHO cells stably expressing hERG
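Also: peak tail current of the secondary pulse compared with the same well before compound.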

human ether-à-go-go-related gene (hERG) potassium channel, sequence (Q12809 whole entry, looked up): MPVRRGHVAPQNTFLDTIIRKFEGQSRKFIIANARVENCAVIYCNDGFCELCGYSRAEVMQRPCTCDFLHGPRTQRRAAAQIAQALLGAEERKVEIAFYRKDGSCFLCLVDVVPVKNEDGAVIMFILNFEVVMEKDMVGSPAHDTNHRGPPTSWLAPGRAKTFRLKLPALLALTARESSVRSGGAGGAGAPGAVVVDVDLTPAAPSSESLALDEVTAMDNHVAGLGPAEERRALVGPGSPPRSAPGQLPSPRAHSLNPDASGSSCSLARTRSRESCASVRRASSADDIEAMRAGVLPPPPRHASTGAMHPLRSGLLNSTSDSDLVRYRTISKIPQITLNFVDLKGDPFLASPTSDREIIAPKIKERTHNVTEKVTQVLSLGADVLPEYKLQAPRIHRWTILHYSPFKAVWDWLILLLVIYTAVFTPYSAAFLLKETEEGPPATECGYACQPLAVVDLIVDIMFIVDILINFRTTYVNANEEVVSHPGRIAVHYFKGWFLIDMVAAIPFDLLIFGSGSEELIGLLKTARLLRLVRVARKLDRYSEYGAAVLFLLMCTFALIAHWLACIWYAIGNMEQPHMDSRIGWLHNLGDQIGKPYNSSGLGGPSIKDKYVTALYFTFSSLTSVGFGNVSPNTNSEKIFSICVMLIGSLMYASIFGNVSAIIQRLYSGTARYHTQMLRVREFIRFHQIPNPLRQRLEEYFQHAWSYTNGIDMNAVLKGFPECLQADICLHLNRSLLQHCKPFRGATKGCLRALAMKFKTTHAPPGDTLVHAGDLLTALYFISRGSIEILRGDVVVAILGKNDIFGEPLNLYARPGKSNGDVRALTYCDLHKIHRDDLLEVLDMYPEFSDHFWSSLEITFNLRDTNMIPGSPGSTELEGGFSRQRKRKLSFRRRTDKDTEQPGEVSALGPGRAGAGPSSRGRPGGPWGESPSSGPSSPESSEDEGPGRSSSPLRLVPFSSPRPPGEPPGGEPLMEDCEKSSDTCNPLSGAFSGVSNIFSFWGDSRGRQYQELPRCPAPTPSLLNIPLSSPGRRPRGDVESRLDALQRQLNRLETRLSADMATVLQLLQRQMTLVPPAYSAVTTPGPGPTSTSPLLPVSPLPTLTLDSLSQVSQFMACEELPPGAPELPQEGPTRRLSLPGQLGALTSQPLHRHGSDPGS

Row | Structure (SMILES) | hERG current change (%, negative = inhibition) at 10uM [%]
1 | Cc1ccccc1NC(=O)C1CCCN1/C=C/C(=O)C(F)(F)F (stereo not shown) | -6.9
2 | CN(C)S(=O)(=O)c1ccc(C(=O)N(c2ccccn2)c2ccccn2)cc1 | 4.26
3 | CCCCN(CC)CCNC(=O)Cn1cnc2sc(C)c(S(=O)(=O)N3CCOCC3)c2c1=O | 0.792
4 | c1cncc(CSc2ccc(-c3cccs3)nn2)c1 | -10.7
5 | COc1ccc(NC(=O)CCl)cn1 | 18.2
6 | CCCCn1c(SCC(=O)Nc2sc3c(c2C(N)=O)CCC3)nnc1-c1ccccc1 | -12.6
7 | Cc1ccc(-n2c(CSc3nc(C)cc(C)n3)n[nH]c2=S)cc1 | 11.5
8 | Cc1ccc(C)n1Cc1ccc(C(=O)O)cc1 | 12.3
9 | N#Cc1ccc(C(=O)NC2CCCc3ccccc32)cc1 (stereo not shown) | -52.8
10 | Clc1ccc(-[n+]2c(-c3cccc(Br)c3)[nH]c3nc4ccccc4nc32)cc1 | 13.5
11 | O=C(NN(CC(O)COc1ccccc1)CC(O)COc1ccccc1)c1ccccc1 (stereo not shown) | -66.1
12 | CCCc1c(C(=O)Nc2ccc(F)cc2C)cnn1-c1ccccc1 | -8.15
13 | O=C(Nc1cccn(Cc2ccccc2Cl)c1=O)NC1CCCCC1 | -20.9
14 | CCOC(=O)c1c(S(=O)(=O)N2CCCC2)c(C)n(C)c1C | 16.7
15 | CN(C)CCNC(=O)c1scc2c1CCCC2.Cl | 6.77
16 | COc1ccc(C)cc1S(=O)(=O)N1CCC(C)CC1 | -22.3
17 | Cc1cc2c(N=O)c(NO)ccc2[nH]1 | 1.52
18 | C#CCOCCOCCOCCNc1nc(N2CCN(C(=O)[C@H](CCCCN)n3cc([C@@H](N)CC(C)C)nn3)CC2)nc(N2CCN(C(=O)[C@H](Cc3cc4ccccc4[nH]3)n3cc([C@@H](N)Cc4ccc(O)cc4)nn3)CC2)n1.Cl | 10.6
19 | CCN(CC)c1cccc(OC2=NS(=O)(=O)c3ccccc32)c1 | 6.79
20 | O=C(CCl)N=c1sccn1Cc1ccccc1Cl | -5.61
21 | COC(=O)c1ccc(NC(=O)c2cccc(NC(=O)c3ccccc3)c2)cc1 | 20.5
22 | Cc1ccc(C2CC2C(=O)NNC(=S)Nc2cccc(Cl)c2)cc1 (stereo not shown) | -4.44

Row | Structure (SMILES) | hERG current change (%, negative = inhibition) at 10uM [%]
23 | COc1cc(/C=C/C(=O)O)cc(S(=O)(=O)N(CC(C)C)CC(C)C)c1OC | 24.3
24 | COc1ccc(Cc2nnc(SCC(=O)c3ccc4c(c3)NC(=O)CO4)o2)cc1 | -2.42
25 | CC(C)c1ccc2nc3sc(C(=O)N4CCc5ccccc5C4)c(N)c3cc2c1 | -0.273
26 | COc1cc2[nH]c(=S)nc(NCc3cccnc3)c2cc1OC | 11.5
27 | CC(NC(=S)Nc1ccc([N+](=O)[O-])cc1)c1ccncc1 (stereo not shown) | -19.1
28 | Cc1ccsc1C(=O)N1CCC(N2CCC(C(=O)NCC3CCCO3)CC2)CC1 (stereo not shown) | 26.8
29 | Cc1ccc(C(=O)NNC(=O)CSc2nnc(-c3ccncc3)n2-c2ccc(C)cc2)cc1 | -51.4
30 | CCCOc1ccc(OCCOCCNCc2ccccc2)cc1.O=C(O)C(=O)O | -45.2
31 | C[C@]12CCC3C(CCC4=CC(O)CC[C@@]43/C=N/O)C1(O)CCC2C1=CC(=O)OC1 (stereo partly shown) | 4.94
32 | COc1ccc(-c2nc(CS(=O)CC(=O)NCc3ccccn3)c(C)o2)cc1 (stereo not shown) | 6.44
33 | CC1(C)Cc2ccccc2-c2nc(NCCO)n(-c3ccccc3)c(=O)c21 | -30.1
34 | CC(=O)Nc1c(O)[nH]c2ccccc12 | 5.66
35 | CCCCn1c(N)c(N(CC)C(=O)c2c(CC)noc2C)c(=O)[nH]c1=O | 8.12
36 | CC1CC(C)CN(C(=O)CCc2ccccc2)C1 (stereo not shown) | -2.16
37 | COc1cc(NC(=O)Cc2ccccc2)cc(OC)c1 | -4.79
38 | O=C(Nc1c(C(=O)N2CCN(c3ccccn3)CC2)oc2ccccc12)c1cccc([N+](=O)[O-])c1 | -48.8
39 | COc1ccc(S(=O)(=O)N2N=C(c3ccc(NS(C)(=O)=O)cc3)CC2c2ccco2)cc1 (stereo not shown) | -74.2
40 | Cc1nc(C)c(C(=O)Nc2nc3c(C)cccc3s2)o1 | -5.72
41 | COC(=O)CNC(=O)c1cn(-c2ccc(C)c(C)c2)c(=O)c2ccccc12 | 1.1
42 | COc1ccccc1C1=CC(=O)CC(C)(C)C1=O | -1.87
43 | COC(=O)C(C)N(c1ccc(OC)cc1)S(C)(=O)=O (stereo not shown) | 19.8
44 | CCN(CC)CCNC(=S)Nc1ccc2nc(N3CCCC3)cc(C)c2c1 | -8.93

Row | Structure (SMILES) | hERG current change (%, negative = inhibition) at 10uM [%]
45 | Cc1cc(C(=O)N/N=C/c2c(C)nn(-c3ccccc3)c2Cl)n[nH]1 | -5.08
46 | Cc1ccc(NC(=O)CCn2c(=O)c3cccn3c3ccccc32)cc1C | 17.4
47 | O=C(Nc1nc(-c2ccc(F)cc2)cs1)c1cnccn1 | -0.514
48 | Cc1ccc(C(=O)Nc2ccc3c(c2)OCCO3)cc1 | 9.56
49 | COc1ccc(NS(=O)(=O)c2cccc(C(=O)NCC(c3ccc(OC)cc3)N3CCCC3)c2)cc1 (stereo not shown) | -46.7
50 | Cc1ccccc1C(=O)NCC(=O)NCC1(N2CCOCC2)CCCCC1 | -25.7
51 | c1cn2c(NC3CCCC3)c(-c3ccc(N4CCOCC4)cc3)nc2cn1 | -12.8
52 | CC/C(=N/Nc1ccccc1Cl)c1cnnc(-c2ccccc2)n1 | -18
53 | Cc1cc2c(ncn2C)c(NS(=O)(=O)c2ccccc2Cl)c1C | -15.7
54 | CC(C)(C)C(=O)NC(=S)N1CCCC1 | 5.68
55 | O=C(c1cc([N+](=O)[O-])ccc1N1CCCCC1)N1CCCC1 | -11
56 | COc1ccc(C(=O)Nc2ccccc2C(=O)N2CCOCC2)cc1Br | -17.3
57 | Cc1ccc(N(C)S(=O)(=O)c2ccc(-c3cnc(C4CC4)o3)cc2)cc1 | 8.38
58 | Cc1nc2ccccc2c2oc(C(=O)NCCN3CCCCC3C)cc12 (stereo not shown) | -7.43
59 | Cn1c(=O)c([N+](=O)[O-])c(NCc2ccccc2Cl)c2ccccc21 | -11.7
60 | Cl.O=C(c1ccco1)N1CCN(CCCCOc2ccc(F)cc2)CC1 | -74.4
61 | c1ccc2[nH]c(SCc3cn4cccnc4n3)nc2c1 | 0.131
62 | COc1cc2c(cc1OC)C1=C(C#N)COCN1CC2 | 7.69
63 | CS(=O)(=O)N(CC(=O)Nc1ccc(S(=O)(=O)N2CCCC2)cc1)c1ccccc1F | 0.317
64 | Cc1ccc(C(=O)Nc2ccon2)cc1S(=O)(=O)N1CCCC1 | -23
65 | NC(=O)C1CCN(C(=O)c2ccc3c(=O)n(Cc4ccco4)c(SCC(=O)c4ccc(F)cc4)nc3c2)CC1 | 5.19
66 | O=C(c1ccccc1)N1N=C(C(F)(F)F)CC1(O)c1ccccc1O (stereo not shown) | 21

Row | Structure (SMILES) | hERG current change (%, negative = inhibition) at 10uM [%]
67 | COc1cccc(NC(=O)Nc2cc(C(=O)NC(C)C)ccc2N2CC3CC(C2)c2cccc(=O)n2C3)c1 (stereo not shown) | -19.5
68 | CC1(c2ccccc2)NC(=O)N(CC(=O)Nc2ccc(C(N)=O)cc2)C1=O (stereo not shown) | 22
69 | O=C(NCc1cccc(C(F)(F)F)c1)c1cccc(Cl)c1Cl | 10.5
70 | O=C(c1ccc(Cl)c([N+](=O)[O-])c1)N1CCN(Cc2ccc3c(c2)OCO3)CC1 | -26.7
71 | Cc1nc(Cl)c2c(n1)NC(=O)CO2 | 16.6
72 | CS/C(=N\S(=O)(=O)c1cccs1)NC(=O)CSc1nc2ccccc2s1 | 21
73 | O=C(c1cc2ccccc2oc1=O)N(Cc1ccco1)CC1CCCO1 (stereo not shown) | 6.96
74 | CCOc1cc(CNc2ccc3c(c2)CCC3)ccc1OC | -8.96
75 | CC(C)CN(C(=O)CSc1nnnn1C)C1CCS(=O)(=O)C1 (stereo not shown) | 26
76 | O=C(CN1CCN(Cc2ccccc2)CC1)N=Nc1c(O)[nH]c2ccccc12 | -65
77 | CC1CCN(CCCNC(=O)c2ccc(Cn3c(=S)[nH]c4ccc(Br)cc4c3=O)cc2)CC1 | -40.1
78 | Cn1c(=O)n(C)c2cc(NC(=O)C(F)(F)F)ccc21 | 4.79
79 | CCCCNc1c(NC(C)=O)c(=O)oc2ccccc12 | 20.7
80 | CCOc1ccc(Br)cc1S(=O)(=O)Nc1ccccc1N1CCOCC1 | -15.8
81 | COc1ccc(OC)c(CNc2ccc3c(c2)CCC3)c1 | 20.4
82 | c1ccc(Nc2nc(N3CCCCC3)nc(N3CCNCC3)n2)cc1 | -38.1
83 | COc1ccc(NC(=O)CNC(=O)c2c(C)nn(C)c2Cl)cc1 | 25.3
84 | CCc1c(C(=O)N2CCN(c3ccccc3F)CC2)[nH]c(C)c1C(C)=O | 2.5
85 | COCCn1c(SCC(=O)Nc2ccc(NC(=O)c3ccco3)c(OC)c2)nc2ccccc2c1=O | -12.1
86 | CC(NC(=O)c1ccco1)c1ccc2c(c1)OCO2 (stereo not shown) | -25.4
87 | CCOC(=O)c1sc(NC(=O)c2ccc(S(=O)(=O)N(CC)CC)cc2)nc1C | -2.85
88 | Cc1cccc(Cn2ccc(NC(=O)c3ccc4c(c3)OCO4)n2)c1 | -34.3
